# ± gives the standard deviation of the averaged measurements. This is one part of the list.
# Test system: PfAP2-LT AP2 domain (GST-tagged)
# Assay: gcPBM binding intensity (ln(normalized median fluorescence intensity)); higher = stronger DNA binding
# Method in brief: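 For binding intensity, the highest Masliner-normalised natural-log median intensity across replicate spots of either probe orientation was taken. Protein bound to the array was stained with Alexa488 anti-GST antibody and scanned at 488 nm. The protein, GST-tagged P. falciparum DNA-binding domains from E. coli at about 25 μg on average, had been applied for 1 h to an Agilent 4 × 180k array of primer-extended double-stranded 36-bp intergenic genomic probes and negative controls.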
row,Sequence,gcPBM binding intensity (ln)
1,ACACATACACATTAGGTGCATATATTTCAATATTAC [GTGCAC_site9423],9.07 ± 0.39
2,AGCCTCGGGGTCATATATATATATATATATATATAT [CACACA_negctrl_site512],10.35 ± 0.05
3,CCACGTATAATATGTACACACACATATATACAAAAA [CACACA_site8208],9.47 ± 0.45
4,ATTATATTTTTAAGTACACACATATATATATATATA [CACACA_site5925],9.46 ± 0.19
5,ATATTAATTCGTTTTGTACACACATAATGAATAATT [CACACA_site8701],9.04 ± 0.44
6,ATAAAAATCATGTTGGTGCGAAATTTTATTATCAGA [GTGCAC_site9735],8.62 ± 0.44
7,AATTATTTACCCTATACACACAAAACAGACTAAAAA [CACACA_site6688],9.06 ± 0.35
8,AAGGTATGATTAATCACACACATAAATATATATACA [CACACA_site2658],9.24 ± 0.4
9,TTATGTATAAACACACGTACACACACTAAGTATATC [XGTACX_site3254],9.41 ± 0.24
10,ATGTTTTTAAAAAATTGTACATAATATTTTTTATAA [XGTACX_site7692],8.43 ± 0.42
11,TATATATATATATATATAATACGAATTTGTAGTACA [TGCATGCA_negctrl_site224],9.05 ± 0.3
12,TATTATTGCATATTTACACACGTACTAATTTAAACA [CACACA_site970],9.07 ± 0.4
13,AAAATAATGTATATATGTACATATAAATATATATAT [XGTACX_site8081],8.98 ± 0.49
14,TTGTATATTTTATGTACACACAATAAGTTAATATAA [CACACA_site4655],8.63 ± 0.43
15,TTTTTCTATAAAAAAAAAAAAAAAAAATATATATAT [TGCATGCA_negctrl_site535],8.12 ± 0.34
16,ATAAAAGGAAGAAAATGTACATATAATTATATGCAT [XGTACX_site8421],8.88 ± 0.47
17,TGTATACTATTAAATTGTACACATAAGAAATATTAT [XGTACX_site5839],8.64 ± 0.33
18,TTTTACAAATATAATGGGTGAGCTATCAAAATAAAT [GTGCAC_negctrl_site91],8.58 ± 0.44
19,AATAATTGTAGACATGCACACACAAATATTATATAT [CACACA_site8181],9.53 ± 0.4
20,CCTTTCTATTGAAAATGTACATATATATTATTATAT [XGTACX_site5527],8.77 ± 0.48
21,AATAATTGTTATAGTTGTACAATACATATATTACAA [XGTACX_site30],8.68 ± 0.48
22,TGTATATATAAAAATATACACACTGTATTATTGTAA [CACACA_site3757],8.71 ± 0.46

row,Sequence,gcPBM binding intensity (ln)
1,CATATTTTGAACTTCACACATATATATATATATATA [CACACA_site4228],9.62 ± 0.37
2,GGTAGATTATTATTAACGAAAAATGTTTTTAACATA [GTGCAC_negctrl_site216],8.28 ± 0.47
3,TATATACAGAATATATGTACATATTCATTTTATATT [XGTACX_site5139],8.73 ± 0.42
4,AAATAAAAAATGGAAATCTTAACAAGAATCATTAAC [CACACA_negctrl_site1626],8.71 ± 0.53
5,AAAAAATAAATAAATAGTACTTTAAAAGAAAAAAAA [XGTACX_site5051],8.55 ± 0.51
6,CAATGTTACTATAATACACACAATATGTATTTGTCT [CACACA_site6668],9.09 ± 0.35
7,AAAGAAAACCAAGTGGTGCATTTTCGTTACTTCATC,8.75 ± 0.48
8,TTGTTTAACTTGTTAAATATAATGTATCTGTGGATA [GTGCAC_negctrl_site108],8.47 ± 0.39
9,AATATATATACTTTTTTTTTTTTTTTTTTTTTTTTT [CACACA_negctrl_site520],8.7 ± 0.16
10,TATGTTTACATATACGTGCACATGAATGTATACATT [GTGCAC_site9894],8.96 ± 0.28
11,ACAAATTGTTAAAGGTGTACAATACATATATAAGAA [XGTACX_site4906],9.1 ± 0.53
12,TTTAGCACAAACAAAAAAAAAATAGAAAAAAATATA [CACACA_negctrl_site1772],8.47 ± 0.55
13,TTATATTTATATGTAATACAAAATAACAAAAAATTT [CACACA_negctrl_site1721],8.45 ± 0.37
14,TTGGTAATTTTAAAATGTACTTATTATATATATATA [XGTACX_site5642],8.56 ± 0.42
15,TATATATATATATCCACACACATACATATATTAATA [CACACA_site69],9.29 ± 0.34
16,TATACACTTGTAATAACACACATTATTTTTTTTTTT [CACACA_site1324],8.83 ± 0.42
17,ATAAAAAATTTAAGTATTTTTTACAAACCTATAAAT [GTGCAC_negctrl_site51],8.33 ± 0.49
18,AATTAACCGAAACACACACACATATATATATATATA [CACACA_site3963],10.24 ± 0.064
19,ATATATTTTTTTTAGCGTACATGCAAAAAAAAAAAA [XGTACX_site4590],8.36 ± 0.33
20,TTTTGTTGTTGTTGTTGTACATAAATAATAAAATAT [XGTACX_site8681],8.56 ± 0.35
21,TATACACACAGACATGCATGCACATATATATATACA [TGCATGCA_site30],9.54 ± 0.42
22,TATTTATTCACTTATTGTACTTATATATATAATAAA [XGTACX_site6147],8.65 ± 0.31

# Reference: the supplement of paper PMC11417369
